Reference: article PMC10233385, “Preparation of Mycobacterium smegmatis porin A (MspA) nanopores for single molecule sensing of nucleic acids” (Biophysics Reports, 2021)

Target: the molecule itself
Assay: SDS-PAGE (oligomer that stays together in SDS); fractions of the Ni-affinity elution on a 4%-20% SDS-polyacrylamide gradient gel, 27 min at +200 V, Coomassie stain; the band around 100 kDa is taken as the MspA octamer

B1: M2 MspA mutant (D90N/D91N/D93N/D118R/D134R/E139K) of Mycobacterium smegmatis porin A (natural protein, UniProt A0QR29 28-211, looked up)
chain: GLDNELSLVDGQDRTLTVQQWDTFLNGVFPLDRNRLTREWFHSGRAKYIVAGPGADEFEGTLELGYQIGFPWSLGVGINFSYTTPNILINNGNITAPPFGLNSVITPNLFPGVSISARLGNGPGIQEVATFSVRVSGAKGGVAVSNAHGTVTGAAGGVLLRPFARLIASTGDSVTTYGEPWNMN
notes: Mycobacterium smegmatis porin A (MspA), M2 mutant; it is probably the mature porin without it (surmise); also called MspA octamer; MspA nanopore; not shown: His6, C-terminal, kept
stoichiometry N: 8
